# Read counts are not given, so values of variants with three or more changes are uncertain.
# B1: LINE1-full (parent)
# chain: UACGUAGGUGGUUUUCCCCUGAUAGUGCUAAGGGGGCCUGGAAGUUUGGACUGGGCAGAGCUCAACACAGCGUGGCAAAGUGGCUGUGGCUAGACUGCCUCUCUGGAUUCCUCGUCACUCAGCAGGGCAUCUCUGAGAGAAAUGCC
# Variants of: B1
# Assay: self-cleavage, relative activity (ratio to wild type); higher = more cleavage; in vitro, sequencing; the parent is a self-cleaving ribozyme
row,Variant,self-cleavage
1,UACGUAGGUGGUUUUCCCCUGAUAGUGCUAGGGGGGCCUAGAAGUUUGGACUGGGCAGAGCUCAACACAGCGUGGCAAAGUGGCCGUGGCUAGACUGCCUCUCUGGAUUCCUCGUCACUCAGCAGGGCAUCUCUGAGAGAAAUGCC [A31G G40A U85C],0.14
2,UACGUAGGUGGUUUUCCCCUGAUAGUGCUAAGGGGGCCUGGGAGCUUGGACUGGGCAGAGCUCAACACAGCGUGGCAAAGUGGCUGUGGCUAGACUGACUCUCUGGAUUCCUCGUCACUCAGCGGGGCAUCUCUGAGAGAAAUGCC [A42G U45C C98A A124G],0.05
3,UACGUAGGUGGUCUUCCCCUGAUAGUGCUAGGGGGGCCUGAAAGUUUGGACUGGGCAGAGCUCAUCGCAGCGUGGCAAAGUGGCUGCGGCUAGACUGCCUCUCUGGAUUCCUCGUCACUCAGCAGGGCAUCUCUGAGAGAAAUGCC [U13C A31G G41A A65U A67G U87C],0.74
4,UACGUAGGUGGUUUUCCCCUGAUAGUGCUAAGGGGGCCUGGAAGUUUGGACUGGGUAGAGCCCAACACAGCGUGGCGGAGUGGCUGUGGCUAGACUGCCUCUCUGGAUUCCUCGUCACUCAGCAGGGCAUCUCUGAGAGAAAUGCC [C56U U62C A77G A78G],0.16
5,UACGUAGGAGGUUUUCCCCUGAUAGUGCUAAAGGGGCCUGGAAGUUUGGACUGGGCAGAGCUCGACACAGCGUGGCAAAGUGGCUGUGGCUAGACUGCCCCUCUGGAUUCCUCGUCACUCAGCAGGGCAUCUCUGAGAGAAAUGCU [U9A G32A A64G U100C C146U],0.53
6,UACGUAGGUGGUUUUCCCCUGAUAGUGCUAAGGGGGCCUGGAAGUUUGGGCUGGGCAGAGCUCAACACAGCGUGGCAGAGUGGCUGUGGCUAGACUGCCUCUCUGGAUUCCUCGUCACUCAGCAGGGCAUCACUGAGAGAAAUGCC [A50G A78G U132A],0.58
7,UACGUAGGUGGUUUUCCCCUGAUAGUGCUAAGGGAGCCUGGAAGUUUGGACUGGGCAGAGCUCAACACAGCGUGGCAAAGUGGCUGUGGCUAGACUGCCCCUCAGGAUUCCUCGUCACUCAGCAGGGCAUCUCUGAGGGAAAUGCC [G35A U100C U104A A138G],0.7
8,UACGUAGGUGGUUCUCCCCUGAUAGUGCUAAGGGGGCCUGGGAGUUUGGACUGGGCAGAGCUCAACACAGCGUGACAAAGUGGCUGUGGCUAGACUGCCUCUCUGGAUUCCACGUCACUCAGCAGGGCAUCUCUGAGAGAAAUGCC [U14C A42G G75A U112A],0.48
9,UACGUAGGUGGUUUUCCCCUGAUGGUGCUAAGGGGGCCUCGAAGUUUGGACUGGGCGGAGCUCAACACAGCGUGGCAAAGUGGCUGUGGCAAGACUGCCUCUCUGGAUUCCUCGUCACUCAGCAGGGCAUCUCUGAGAGAAAUGCC [A24G G40C A57G U91A],0.41
10,UACUUAGGUGGUUUUCCCCUGAUAGUGCUAAGGGGGCCUGGAAGUUUGGACUGGGCAGAGCUCAACACAGCGUGGCAAAGUGGCCGUGGCUAGACUGCCUCUCUGGAUUCCUCGUCACUCAGCAGGGCAUCUCUGAGAGGAACGCC [G4U U85C A140G U143C],0.15
11,UACGUAGGUGGUUUUCCCCUGAUAGUGCCAAGGGGGCCUGGACGUUUGGACUGGGCAGAGCUCAACACAGCGUGGCAAAGUGGCUGUGGCUAGACUGCCUCUCUGGAUUCCUCGUCACUCAGCAGGGCAUCUCUGAGAGAAUUGCC [U29C A43C A142U],2.37
12,UACGUAGGUGGUUUUCCCCUGAUAGUGCUAAGGGGGCCUGGAAGUUUGGACUGGGCGGAGCUCAUCACAGCCUGGCAAAGUGGCUGUGGCUAGACCGCCUCUCUGGAUUCCUCGUCACUCAGCAGGGCAUCUCUGAGAGAAAUGCC [A57G A65U G72C U96C],0.33
13,UACGUAGGUGGUUUUCCCCUGAUAGUGCUAAGGGGGCCUGGAGGUUUGGACUGGGCUGAGCUCAACACAGCGUGGCUAAGUGGCUGUGGCUAGACUGCCUCUCUGGAUUCCUCGUCACUCAGCAGGGCAUCUCUGAGAGAAAUGCC [A43G A57U A77U],0.12
14,UACGUAGGUGGUUUUCCCCUGAUAGUGCUAAGGGGGCCUGGAAGUUCGGACUGGGCAGAGCUCAACACAGCGUGGCAAAGUGGCUGUGGCUAGACAGCCUCUCUGGAAUCCUCGUCACUCAGCAGGGCGUCUCUGAGAGAAAUGCC [U47C U96A U108A A129G],0.15
15,UACGUAGGUGGUUUUCCCCUGAUAGUGCUAAGGGGGCCUGGAAGUUUGGACUGAGCAGAGCUCAACACAGCGAGGCAGAGUGGCUGUGGCUAGACUGCCUCUCUGGAUUCCUCGUCACUCAGCAGGGCAUCUCUGAGAGAGAUGCC [G54A U73A A78G A141G],0.09
16,UACGUAGGUGGUUUUCCCCUGAUAGUGCUAAGGGGGCCUGGAGGUUUGGACUGGGCAGAGCUCUACACAGCGUGGCAGAGUGGCUGUGGCUAGACUGCCUCUCUGGAUUCCUCGUCACUCAGCAGGGCAUCUCUGAGAGAAAUGCC [A43G A64U A78G],0.34
17,UACGCAGGUGGUGUUCCCCUGAUAGUGCUAAGGGGGCCAGGAAGUUUGGACUGGGCAGAGCUCAACACAGCGUGGCAAGGUGGCUGUGGCUAGACUGCCUCUCUGGAUUCCUCGUCACUCAGCAGGGCAUCUCUGAGAGAAAUGCC [U5C U13G U39A A79G],1.34
18,UACGUAGGCGGUUUUCCCCUGAUAGUGCUAUGGGGGCCUGGAAGUUUGGACUGGGCAGAGCGCAACACAGCGUGGCAAAGUGGCUGUGGCUAGACUGCCUCUCUGGAUUCCUCGUCACUCAGCAGGGCAUCUCUGAGAGAAAUGCC [U9C A31U U62G],0.24
19,UACGUAGGUGGUUUUCCCCUGAUAGUGCUAAGGGGGCCUGGAAGUUUGGACUGGGCGGAGCUCAACACAGCGUGGCUAAGUAGCUGUGGCUAGACUGCCUCUCUGGAUUCCUCGUCACUCAGCAGGGCAUCUCUGAGAGAAGUGCC [A57G A77U G82A A142G],1.41
20,UACGUAGGUGGUUUUCCCCUGAUAAUGCUAAGGGGGCCUGGAAGUUUGGACUGGGCAGAGCUCAACACAGCGUGGCAGAGUGGCUGUGGCUAGACUGCCUCUCUGGAUUCCCCGUCACUCAGCAGGGCAUCUCUGAGAGAAAUGCC [G25A A78G U112C],0.44

row,Variant,self-cleavage
1,UACGUAGGUGGUUUUCCCCUGAUAGCGCUAAGGGGGCCUGGAGGUUUGGACUGGGCAGAGCUCAACACAGCGUGGCAAAGUGGCUGUGGCUAGACUGCCUCUCUGGAUUCCUCGUCACUCAGCAGGGCAUCCCUGAGAGAAAUGCC [U26C A43G U132C],0.42
2,UACGUAGGUGGUCUUCCCCUGAUAGUGCUAAGGGGGCCUGGAAGUUUGGACUGGGCAGAGCUCAACACAGCGUGGCAAAGCGGCUGUGGCUAGACUGCCUCUCUGGAUUCCUCGUCACUCAGCAGGGCAUCUCCGAGAGAAAUGCC [U13C U81C U134C],1.04
3,UACGUAGGUGGUUUUCCCCUGAUAGUGCUAAGGGGGCCUGGAAGUUUGGACUGGGCAGAGCUCAACACAGCGAGGCAAAGAGGCUGUGGCUAGACCGCCUCUCUGGAUUCCUCGUCACUCAGCAGGGCAUCUCUGAGAGAAAUGCC [U73A U81A U96C],0.12
4,UGCGUAGGUGGUUUUCCCCUGAUAGUGCUAAGGGGGCCUGGAAGUUUGGACUGGGCAGGGCUCAACACAGCGUGGCAAUGUGGCUGUGGCUAGACUGCCUCUCUGGUUUCCUCGUCACUCAGCAGGGCAUCCCUGAAAGAAAUGCC [A2G A59G A79U A107U U132C G137A],0.32
5,UACGUAGGAGGCUUUCCCCUGAUAGUGCUAAGGGGGCCUGGAAGUUUGGACCGGGCAGAGCUCAACACAGCGUGGCAAAGUGGCUGUGGCUAGACUGCCUCUCUGGAUUCCUCGUCACUCAGCAGGGCAUCACUGAGAGAAAUGCC [U9A U12C U52C U132A],1.48
6,UACGUAGGUGGUUUUCCCCUGAUAGUGCUAAGGGGGCCUGGAAGUUUGGGCUGGGCAGUGCUCAACAAAGCGUGGCCAAGUGGCUGUGGCUAGACUGCCUCUCUGGAUUCCUCAUCACUCAGCAGGGCGUCUCUGAGAGAAAUGCC [A50G A59U C68A A77C G114A A129G],0.01
7,UACGUAGGUGGUUUUCCCCUGAUAGUGCUGAGGGGGCCUGGAAGUUUGGACUGGGCAGAGCUCAACUCAGCGUGGCAAAGUGGCUGUGGCUAGACUGCCUCUCUGGAUUCCUCGUCACUCAGCAGGGCAUCCCUGAGAGAAACGCC [A30G A67U U132C U143C],0.31
8,UACGUAGGUGGUUUUCCCCUGGUAGAGCUAAGGGGGCCUGGAGGUUUGGACUGGGCAGUGCUCAACACAGCGUGGCUAAGUGGCUGUGGCUAGACUGCCUCUCUGGACUCCUCGUCACUCAGCAGGGCAUCUCUGAGAGAAAGGCC [A22G U26A A43G A59U A77U U108C U143G],0
9,UACGUAGGUGGUUUUCCCCUGAUAGUGCUAAGGGGGCCUGGAAGUUUGGACUGGGCAGAGCUCAACACGGCGUGGCAAAGUGGCUGUGGCUAGACUGCCUCUCUGGAUUCCUCGUCACUCAGCAGGGCAUCUCAGAGAGACAUGCC [A69G U134A A141C],0.17
10,UACGUAGGUGGUUUUCCCCUGAUAGUGCUAAGGGGGCCUGGAAGUUUGGACUGGGCAGAGCUCAACACAGCGUGGCAGAGUGGCUGUGGCUAGACUGCCUCUCUGGAUUCCUCGUCACUCAACAGGGCAUCUCUGAGAGAAGUGCC [A78G G122A A142G],1.42
11,UACGUAGGUGGUAUUCCCCUGACAGUGCUAAGGGGGCCUGGAAGUUUGGUCUGGGCAGGGCUCAACACUGCGUGGCAAAGUGGCUGUGGCUAGACUGCCUCUCUGGAUUCCUCGUCGCUCAGCAGGGCAUCUCUGAGAGAAAUGCC [U13A U23C A50U A59G A69U A117G],0
12,AACGUAGGUGGUUUUCCCCCGAUAGUGCUAAGGGGGCCUGGAAGUUAGGACUGGGCAGAGCUCAACACAGCGAGGCAAAGUGGCUGUGGCUAGACUGCCUCUCUGGAUUCCUCGUCACUCAGCAGGGCAUCUCUGAGAGAAAUGCC [U1A U20C U47A U73A],1.21
13,UACGUAGGUGGUUUUCCCCUGAUAGUGCUAAGGGGGCCUGGAAGUUUGGACUGGGCAGAGCUCAGCACAGCGUGGCAAAGUGGCUGUGGCUCGACUGCCUCUCUGGAUUCCUCGUCACUCAGCAGGGCUUCUCUGAGAGAAAUGCC [A65G A92C A129U],0
14,UACGUAGGUGGUUUUCCCCUGAUAGUGCUAAGGGGGCCUGGGAGUUUGGACUGGGCAGAGCUCAACACAGCGUGGCAAAGUGGCUGUGGCUAGACUGCCUCUCUGGAUUCCUCGGCACUCAGCAGGGCGUCUCUGAGAGAAAUGCC [A42G U115G A129G],2.09
15,UACGUAGGUGGUCUUCCCCUGACAGUGCUAAGGGGGCCCGGAAGUUUGGACUGGGCAGAGCUCAACACAGCGUGGCAAAGUGGCUGUGGCUAGACUGCCUCUCUGGAUUCCUCGUCACUCAGCAGGGCGUCUCUGAGAGAAAUGCC [U13C U23C U39C A129G],0
16,UACGUAGGUGGUUUUCCCCUGAUAGUGCUAAGGGGGCCUGGAAGUUUGGACUGGGCAGAGCUCAACACAGCGUGGCAAAGUGGCUGUGGCUAGCCCGUCUCUCUGGAUUCCUCGUCACUCAGCAGGGCAUCUCUGAGAGAAAUGCC [A94C U96C C98U],0.05
17,UACGUAGGUGGUUUUCCCCUGAUAGUACUAAGGGGGCCUGGAAGUUUGGACUGGGCAGAGCUCAACACGGCGUGGCAAAGUGGCAGUGGCUAGACUGCCUCUCUGGAUUCCUCGUCACACGGCAGGGCGUCUCUGAGAGAAAUGCC [G27A A69G U85A U119A A121G A129G],0.22
18,UACGUAGGUGGUUUUCCCCUGAUAGUGCUAAGGAGGCCUGGAAGUUUGGACUGGGCAGAGCUCAACACAGCGUGGCAAAGUGGCUGUGGCUAGACUGCCUCUCUGGAUUCCUCGUCACUCAGCAGGGCAACUCUGAGAGACAUGCC [G34A U130A A141C],0.89
19,UACGUAGGUGGUUUUCCCCUGAUAGUGCUAAGGGGGCCUGGAAGUUUGGACUGGGCAGAGCUCAACACAGCGUGGCAAAGUGGCUGUGGCUAGACCGCCUCUCUGGAUUCCUCGACGCUCAGCAGGGCAUCUCUGAGAGAAAUGCC [U96C U115A A117G],0.19
